In PubChem BioAssay AID686970 (National Center for Advancing Translational Sciences (NCATS), 2013):
About 6,000 (1.7%) of roughly 360,000 compounds were called active. Inconclusive means that the source gave no clear call. Such entries were picked first, then a sample of the others. Calls follow the shape of the dose curve; as a rule, active = well fitted cell-killing curve with a large enough effect; inconclusive = small, poorly fitted or top-dose-only effect, or effect the other way; inactive = flat fitted curve, though single readings scatter. No potency is given beside an inconclusive call; the fits are too rough.

Assay: qHTS for induction of synthetic lethality in tumor cells producing 2HG: qHTS for the HT-1080-NT fibrosarcoma cell line;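 also: NT is the 2HG producing partner of a matched IDH1 knockdown line; nearly all actives have a fitted effect of over 55% in size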;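 as to activity, negative = less viability: 0% = DMSO-treated cells and -100% = media-only wells without cells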
Details: HT-1080-NT fibrosarcoma viability, CellTiter-Glo ATP luminescence, 48 h; activity, negative = less viability: at 46.1 µM (top of the series) unless noted
Procedure, shortened: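 Toxicity toward the 2HG-producing NT line was scored as %Activity, normalised to DMSO and no-cell wells, from CellTiter-Glo luminescence after 48 hours' treatment.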
Potency is read from the fitted curve at half-maximal effect; tags tell the direction and shape of the fitted curve.

Structure (SMILES) | activity, negative = less viability | Potency
COc1cccc(NC(=O)CNC(=O)c2ccc(F)cc2)c1 | inactive: -4.05% | –
CCC(=O)/C=C1\Sc2ccc(OC)cc2N1CCO | – | inconclusive [rising, full curve]
O=C(NC1CCCCC1)C(c1ccc2ncccc2c1)N(Cc1cccs1)C(=O)c1cccs1 (stereo not drawn) | – | inconclusive [cytotoxic, single point]
OC[C@@H]1[C@@H](c2ccc(Cl)cc2)C(c2cccc(Cl)c2)=NN1c1ccccc1 | – | inconclusive [cytotoxic, single point]
COC(=O)c1sccc1NS(=O)(=O)c1ccc(OC)cc1 | – | inconclusive [cytotoxic, single point]
COc1ccc(S(=O)(=O)N2CCCCC2c2cc(C(=O)Nc3ccc(F)c(Cl)c3)no2)cc1 (stereo not drawn) | – | inconclusive [cytotoxic, single point]
Clc1ccc(Cn2cc(/C=N/n3cnnc3)c3ccccc32)cc1 | – | inconclusive [cytotoxic, partial curve]
CCCCn1c(N)c(N(CCC(C)C)C(=O)c2ccccc2-n2cnnn2)c(=O)[nH]c1=O | inactive: 6.98% | –
CCc1nnc(NC(=O)CSc2nnc(-c3cc4ccccc4cc3O)n2CC)s1 | inactive: -9.76% | –
O=C(CSc1ccc(-c2ccccn2)nn1)Nc1ccc(F)c(F)c1 | – | inconclusive [cytotoxic, single point]
CC1C(=O)N(Cc2cn(Cc3ccco3)nn2)CCS(=O)(=O)N1Cc1ccc(-c2ccccc2Cl)cc1 (stereo not drawn) | – | inconclusive [cytotoxic, single point]
CC1(c2ccccc2)CC(C)(C)N(C(=O)C2CCCO2)c2ccccc21 (stereo not drawn) | – | inconclusive [cytotoxic, single point]
Cc1[nH]c2ccc(-c3nnc(SCC(=O)NCc4ccco4)n3Cc3ccccc3)cc2c1C | inconclusive: -30.8% [cytotoxic] | –
Cc1cccc(N2CCN(C(=O)c3c(-c4ccccc4)noc3C)CC2)c1C | – | active: 1.16 µM
COC(=O)c1ccc(NC(=O)Cc2ccc(F)cc2)cc1 | inactive: -15.1% | –
COc1cc(/C(C#N)=C/c2ccccc2)c([N+](=O)[O-])cc1OC | inactive: -15.6% | –
O=C(OCC(=O)N1CCCCC1)c1cc(=O)[nH]c2ccccc12 | inactive: 0.395% | –
CCN1C(=NCc2ccco2)N[C@@H](c2cccc(F)c2)C(C(=O)OC)=C1C | inactive: -0.965% | –
CCCCCCCCCCCCN1[C@@H](CC(=O)OC)c2cc(F)ccc2S1(=O)=O | – | inconclusive [rising, single point]
COc1cccc(OC)c1C(=O)Nc1ccc(NC(=O)c2ccco2)cc1 | inconclusive: 31.3% | –
O=C(NCCO)c1cccc(Nc2nc(-c3ccccc3)c3cc(Cl)ccc3n2)c1 | – | inconclusive [cytotoxic, single point]
CCn1ccnc1CN1CCCC(C(=O)c2ccc3cc(OC)ccc3c2)C1 (stereo not drawn) | – | inconclusive [cytotoxic, partial curve]
COc1cc2cc(C(=O)NC(C)c3cccc4ccccc34)c(N)nc2cc1OC (stereo not drawn) | – | active: 25.9 µM
O=c1[nH]c(NNC(=S)NC2CCCCC2)nc2c1C1(CCCC1)Cc1ccccc1-2 | inactive: 29% | –

Structure (SMILES) | activity, negative = less viability | Potency
OCCN1CCN(c2nc(-c3ccccc3O)nc3ccccc23)CC1 | – | inconclusive [cytotoxic, single point]
O=C1c2cccnc2C(=O)N1Cc1ccccc1 | inactive: -2.18% | –
Cc1onc(C(=O)N2C(C)CCCC2C)c1[N+](=O)[O-] (stereo not drawn) | inactive: 9.36% | –
CSCc1c(C(=O)NCCc2ccccn2)oc2ccccc12 | inactive: 9.94% | –
OC[C@@H]1CN(Cc2ccc(-c3ccccc3)cc2)C[C@H](n2cnc3c(NCc4ccc(F)cc4)ncnc32)O1 | – | active: 18.4 µM
COc1ccccc1CCC(=O)N(Cc1ccccc1)c1c(N)n(Cc2ccccc2)c(=O)[nH]c1=O | inactive: 0.152% | –
CC(=O)Nc1ccc(N=C(C2=C(O)c3ccccc3C2=O)c2ccccc2)cc1 | inactive: -25.4% | –
CC(C)CC(COCc1ccc(C(F)(F)F)cc1)N1CCN(C(=O)c2ccc(C(F)(F)F)cc2)CCC1=O (stereo not drawn) | – | inconclusive [cytotoxic, single point]
Cc1cc2nc(/C=C/c3cccnc3)[nH]c2cc1C | – | active: 0.517 µM
O=C(c1cc(COc2ccc3ncccc3c2)on1)N1CCCCCC1 | – | active: 3.66 µM
CCOC(=O)C1=C(CS(=O)(=O)c2ccc(C)c(C)c2)NC(=O)NC1c1ccc(O)cc1 (stereo not drawn) | inactive: 2.09% | –
O=S(=O)(NCc1ccccc1)c1ccc(S(=O)(=O)N(Cc2ccccn2)C2CCCC2)cc1 | – | inconclusive [cytotoxic, single point]
CC(C)CC(=O)Nc1cccc(-c2csc(-c3ccccc3)n2)c1 | – | inconclusive [cytotoxic, single point]
Cc1ccc(NC(=O)C2CC2c2ccccc2)c([N+](=O)[O-])c1 (stereo not drawn) | inactive: -1.46% | –
COc1ccc(NC(=O)CC(c2ccccc2)c2ccco2)cc1 (stereo not drawn) | – | inconclusive [cytotoxic, single point]
COc1ccccc1/C=C/CN1CCNC(=O)C1CC(=O)NCCc1cnccn1 (stereo not drawn) | inactive: -10.3% | –
Cc1cccc(N2CCN(C(=O)C3CCN(S(=O)(=O)c4cccc5cccnc45)CC3)CC2C)c1 (stereo not drawn) | inactive: -12.5% | –
CCN1CCN(Cc2ccc(NC(=O)c3ccc(C)c(NC(=O)c4cccc(-c5cn[nH]c(=O)c5)c4)c3)cc2C(F)(F)F)CC1 | – | inconclusive [cytotoxic, single point]
CCOc1cc(S(=O)(=O)NCc2ccc(OC)cc2)c(OCC)cc1-n1cnnn1 | – | active: 12.6 µM
O=C(NCc1ccco1)C1CC(c2ccc(C(F)(F)F)cc2)=NO1 (stereo not drawn) | – | inconclusive [cytotoxic, single point]
Cc1cccc(NC(=O)c2ccc3c(c2)OCCO3)c1 | – | inconclusive [cytotoxic, partial curve]
O=C(NC1CCCCC1)/C(=N\O)c1ccccn1 | inactive: 7.56% | –
O=C(CSc1nnc(Cn2nnc3ccccc32)o1)N(Cc1ccc(F)cc1)c1ccccc1 | – | active: 0.282 µM
CCNc1nc(NCC)nc(-n2nc(C)cc2C)n1 | – | active: 2 µM
